Reference: ChEMBL document CHEMBL4831512 (J Med Chem, 2021)
Converted amounts (≈) assume the structure as drawn.

Legend:
[1] = molecular target: T1, Phosphatidylinositol 4,5-bisphosphate 3-kinase catalytic subunit gamma isoform (Homo sapiens, UniProt P48736)
[2] = molecular target: T1, Phosphatidylinositol 4,5-bisphosphate 3-kinase catalytic subunit gamma isoform; remark: listed apart in the source
in vitro [3] = conditions: rat, microsomes
physchem [4] = conditions: buffer, pH 6.8
Blood = test: tissue or blood; assay type: functional, tissue-based; conditions: Homo sapiens
in vivo [5] = conditions: Sprague-Dawley, rat, po, 100 mg/kg
in vivo [6] = conditions: Sprague-Dawley, rat, po, 300 mg/kg
physchem [7] = conditions: buffer, pH 6.8; remark: listed apart in the source
physchem [8] = conditions: simulated gi fluid
in vivo [9] = conditions: Sprague-Dawley, rat, po, 100 mg/kg; remark: listed apart in the source
in vivo [10] = conditions: Sprague-Dawley, rat, po, 10 mg/kg
physchem [11] = conditions: simulated gi fluid, pH 1
in vivo [12] = conditions: Sprague-Dawley, rat, po, 100 mg/kg; remark: listed apart in the source
in vivo [13] = conditions: Sprague-Dawley, rat, iv, 1 mg/kg
in vivo [14] = conditions: Sprague-Dawley, rat, po, 300 mg/kg; remark: listed apart in the source
in vivo [15] = conditions: Sprague-Dawley, rat, po, 300 mg/kg; remark: listed apart in the source
in vitro [16] = conditions: PAMPA
in vivo [17] = conditions: Sprague-Dawley, rat, po, 10 mg/kg; remark: listed apart in the source
in vivo [18] = conditions: Sprague-Dawley, rat, po, 10 mg/kg; remark: listed apart in the source

T1 sequence (P48736 whole entry, canonical isoform): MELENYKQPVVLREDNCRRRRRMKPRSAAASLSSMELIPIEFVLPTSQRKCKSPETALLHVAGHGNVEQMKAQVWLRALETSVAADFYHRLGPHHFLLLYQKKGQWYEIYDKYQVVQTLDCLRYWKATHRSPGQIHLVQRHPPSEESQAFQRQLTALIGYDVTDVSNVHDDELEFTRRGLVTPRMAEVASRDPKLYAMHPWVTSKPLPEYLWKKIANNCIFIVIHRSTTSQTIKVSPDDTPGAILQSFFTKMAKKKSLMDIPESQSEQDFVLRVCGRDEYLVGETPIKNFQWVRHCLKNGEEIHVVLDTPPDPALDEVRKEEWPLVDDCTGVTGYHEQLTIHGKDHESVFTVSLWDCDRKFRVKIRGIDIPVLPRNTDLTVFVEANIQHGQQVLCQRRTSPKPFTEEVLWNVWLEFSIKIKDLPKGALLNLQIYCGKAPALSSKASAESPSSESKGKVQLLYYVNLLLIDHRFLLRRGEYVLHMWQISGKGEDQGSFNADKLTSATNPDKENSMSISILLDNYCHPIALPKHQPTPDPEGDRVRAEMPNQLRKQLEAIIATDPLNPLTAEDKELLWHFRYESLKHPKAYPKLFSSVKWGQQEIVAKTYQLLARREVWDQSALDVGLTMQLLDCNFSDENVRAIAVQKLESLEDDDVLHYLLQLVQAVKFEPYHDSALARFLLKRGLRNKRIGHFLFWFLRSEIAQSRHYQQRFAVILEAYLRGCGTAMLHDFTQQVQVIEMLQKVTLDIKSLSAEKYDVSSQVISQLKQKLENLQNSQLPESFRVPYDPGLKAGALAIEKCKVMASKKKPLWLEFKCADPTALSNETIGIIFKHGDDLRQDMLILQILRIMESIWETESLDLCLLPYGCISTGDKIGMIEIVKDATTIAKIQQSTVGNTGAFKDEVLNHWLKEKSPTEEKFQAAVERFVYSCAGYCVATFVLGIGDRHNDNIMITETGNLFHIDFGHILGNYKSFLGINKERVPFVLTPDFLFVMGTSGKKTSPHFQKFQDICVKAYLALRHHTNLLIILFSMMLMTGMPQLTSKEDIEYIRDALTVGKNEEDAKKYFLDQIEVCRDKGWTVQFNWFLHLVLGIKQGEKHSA

CCn1nnc(CCNC(=O)Nc2nc(C)c(-c3ccc(S(C)(=O)=O)c(F)c3)s2)n1
IC50 [1]: 170 nM
IC50 [2]: 810 nM

Cc1cc(-c2cc(-c3cc(S(=O)(=O)NCC(C)(C)O)ccc3C)cnc2N)on1
microsomal CLint at 0.5 h (in vitro [3]): 46 µL/min/mg
solubility thermodynamic (physchem [4]): 190 µg/mL (≈ 456 µM)
IC50 (Blood): 804 nM
Cmax (in vivo [5]): 7.18 µM
bioavailability (in vivo [6]): 20%
solubility thermodynamic (physchem [7]): 360 µg/mL (≈ 864 µM)
solubility thermodynamic (physchem [8]): 626 µg/mL (≈ 1500 µM)
bioavailability (in vivo [9]): 38%
AUC(0-t) at 24 h (in vivo [10]): 9.35 µM·h
solubility thermodynamic (physchem [11]): 528 µg/mL (≈ 1270 µM)
AUC(0-t) at 24 h (in vivo [12]): 79.9 µM·h
clearance (in vivo [13]): 20 mL/min/kg
AUC(0-t) at 24 h (in vivo [14]): 124 µM·h
Cmax (in vivo [15]): 9.54 µM
Fa at 16 h, 500 µM (in vitro [16]): 41%
bioavailability (in vivo [17]): 44%
Cmax (in vivo [18]): 1.49 µM

Cc1ccc(S(=O)(=O)NCC(C)(C)O)cc1-c1cnc(N)c(-c2cnn(C)n2)n1
IC50 [1]: 25 nM
IC50 [2]: 140 nM

Cc1ccc(S(=O)(=O)NCC(C)(C)O)cc1-c1cnc(N)c(-c2cnn(C)c2)c1
IC50 [1]: 88 nM
IC50 [2]: 400 nM

Cc1ccc(S(=O)(=O)NCC(C)(C)O)cc1-c1cnc(N)c(-c2cn(C)nc2C)c1
IC50 [1]: 330 nM

CNC(=O)c1nc(-c2ccc(Cl)c(S(=O)(=O)Nc3ccc(F)c(F)c3)c2)cnc1N
IC50 [1]: 110 nM
IC50 [2]: 352 nM

Cc1ccc(S(=O)(=O)N[C@H]2CC[C@H](O)CC2)cc1-c1cnc(N)c(C(=O)C2CC2)n1
IC50 [2]: 15 nM

Cc1ccc(S(=O)(=O)NCC(C)(C)O)cc1-c1cnc(N)c(-n2cncn2)n1
IC50 [1]: 36 nM
IC50 [2]: 350 nM

Cc1ccn(-c2nc(-c3cc(S(=O)(=O)NCC(C)(C)O)ccc3C)cnc2N)n1
IC50 [1]: 36 nM
IC50 [2]: 240 nM

Cc1ccc(S(=O)(=O)NCC(C)(C)O)cc1-c1cnc(N)c(-c2cn(C)nc2C)n1
IC50 [1]: 28 nM
IC50 [2]: 61 nM
